# The full ranking holds about 3,600 compounds; the median of “viability index relative to DMSO control” is about 0.81, and the lowest 2% start at about 0.13. The list shows a part of the results.
# Test system: Plasmodium falciparum NF54 stage V gametocytes
# Assay: viability index relative to DMSO control (fraction); higher = less gametocyte killing
# Conditions: 1.25 µM, incubation time: 72 h
# 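Note: 384-well serum-free SaLSSA: MitoTracker Red CMXRos staining with saponin lysis, high-content imaging, treated-well particle count divided by plate-mean count of DMSO wells.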
row,SMILES,viability index
1,CC1=C(C(=O)OC(C)C)C(c2ccc([N+](=O)[O-])cc2)C2=C(CC(C)(C)CC2=O)N1 (stereo not given),1.15
2,C=CCSc1nc2sc3c(c2c(=O)n1-c1ccccc1)CCN(CCC)C3,0.942
3,COc1cc(C(C(=O)NCc2ccccc2)N(C(=O)c2snc(C(N)=O)c2N)c2ccc(C(C)C)cc2)cc(OC)c1OC (stereo not given),0.785
4,COc1cc(NC(C)=C2C(=O)c3ccccc3C2=O)c(OC)cc1Cl,0.933
5,CN(Cc1ccsc1)C(=O)CCc1nnc(CCCc2ccccc2)o1,0.885
6,CCOC(=O)C[n+]1cc(CC)sc1N,0.699
7,O=C(CSc1nc2cc3c(cc2c(=O)n1Cc1ccco1)OCO3)Nc1cc(C(F)(F)F)ccc1Cl,0.731
8,C[C@H]1[C@@H](O)O[C@@H]2O[C@]3(C)CC[C@H]4[C@H](C)CC[C@@H]1C24OO3,0.422
9,Fc1ccc(C(CCNc2ncnc3c2[nH]c2ccccc23)c2ccco2)cc1 (stereo not given),0.785
10,CCOC(=O)c1c(N)n(-c2ccc(CC)cc2)c2nc3ccccc3nc12,1.05
11,c1ccc2c(NCCc3c[nH]cn3)c3ccccc3nc2c1,0.988
12,COC(=O)c1ccc(C2C3=C(O)CC(c4ccc(F)cc4)CC3=Nc3ccccc3N2C(=O)c2ccccc2)cc1 (stereo not given),0.614
13,Cc1nnc2sc(SCc3cccc([N+](=O)[O-])c3)nn2c1=O,0.679
14,COc1ccc(S(=O)(=O)N2CCN(C(=S)NC3CCCCC3)CC2)cc1,0.683
15,O=S1(=O)CCC(O)c2ccsc21 (stereo not given),0.865
16,CCOC(=O)c1c(NC(=O)CSc2nnc(CNC(=O)c3cccc(C)c3)n2-c2cccc(C)c2)sc2c1CCC2,0.834
17,CC[n+]1c(C)n(-c2ccccc2)c2ccc(C3Nc4ccccc4S3)cc21 (stereo not given),0.803
18,CCC(Sc1nc(C)cc(-c2ccccc2)n1)C(=O)Nc1cccc2ccccc12 (stereo not given),0.996
19,COc1ccc(C[n+]2cc(-c3ccc(Cl)cc3)n3ccccc32)cc1,0.703
20,CCOC(=O)c1cnc2ccccc2c1NCCCN(C)C,0.849
21,COc1cc2c(cc1OC)C1Cc3ccc(OC)c(OC)c3CN1CC2 (stereo not given),0.652
22,Cc1cc(NC(=O)C2c3ccccc3C(=O)N(CC(C)C)C2c2cccs2)no1 (stereo not given),0.225
23,C=CCSc1nnc2c(n1)[nH]c1ccc(OCC)cc12,0.656
24,N#Cc1c2c(c(N3CCN(CCO)CC3)n3c1nc1ccccc13)CCC2,1.14
25,COc1cc(C=NNc2nc3ccccc3[nH]2)ccc1O,0.545

# — the supplement of paper PMC4723716
